{"source": "PubChem BioAssay AID686971", "about": "(National Center for Advancing Translational Sciences (NCATS), 2013)", "note": "The campaign covered roughly 360,000 compounds. About 7,500 (2.1%) were called active. Inconclusive results, whose numbers are uncertain, are shown with a selection of clear calls. Calls follow the shape of the dose curve; as a rule, active = well fitted cell-killing curve with a large enough effect; inconclusive = small, poorly fitted or top-dose-only effect, or effect the other way, or another doubt; inactive = no such curve, though single readings can be large or run the other way. Potencies of inconclusive entries are left out as doubtful fits. Potency is read from the fitted curve at half-maximal effect; tags tell the direction and shape of the fitted curve.", "data": [{"assay": "qHTS for induction of synthetic lethality in tumor cells producing 2HG: qHTS for the HT-1080-IDH1KD cell line;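 as to activity, negative = toxicity: 0% = DMSO wells and -100% = cell-free medium wells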", "details": "HT-1080 IDH1 knockdown viability, ATP luminescence, 48 h; activity, negative = toxicity: at 46.1 µM (top of the series) unless noted", "method_in_brief": "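% activity derives from luminescence (CellTiter-Glo), normalised to DMSO and no-cell wells. HT-1080-IDH1KD cells, 750/well, had 48 h compound exposure at 37 °C.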", "values": [{"molecule": "NCCCCCc1cn([C@@H](CO)C(=O)NCCCCCCCCCCC(=O)N2CCNCC2)nn1", "Potency": "inactive"}, {"molecule": "COc1ccc(NC(=O)COc2coc(CN3CCc4ccccc4C3)cc2=O)cc1", "Potency": "inconclusive [rising, single point]"}, {"molecule": "COc1ccc(Br)c(C=O)c1OS(=O)(=O)c1ccc(C)cc1", "Potency": "inconclusive [cytotoxic, single point]"}, {"molecule": "COc1ccc(-c2csc3ncn(-c4ccccc4OC)c(=O)c23)cc1OC", "activity, negative = toxicity": "inconclusive: -31.2% [cytotoxic]"}, {"molecule": "CCN(c1ccccc1)S(=O)(=O)c1c[nH]c2ccc([N+](=O)[O-])cc12", "Potency": "inconclusive [cytotoxic, single point]"}, {"molecule": "O=C(Nc1ccc(CSc2ccccc2)cc1)c1ccc(CN2CCOCC2)cc1", "Potency": "inconclusive [cytotoxic, partial curve, poor fit]"}, {"molecule": "CCC(C)c1ccc(S(=O)(=O)Nc2cccnc2)cc1", "note": "(stereo not drawn)", "Potency": "inconclusive [cytotoxic, single point]"}, {"molecule": "COc1ccccc1-n1c(SCC(=O)c2ccc(O)cc2O)nc2cc([N+](=O)[O-])ccc21", "Potency": "inconclusive [cytotoxic, partial curve]"}, {"molecule": "COC(=O)c1sc2cnccc2c1N", "activity, negative = toxicity": "inconclusive: -7.54% [cytotoxic]"}, {"molecule": "Cc1noc(C)c1COc1ccc(C(=O)OC(C)C(=O)Nc2ccc(N3CCOCC3)cc2)cc1", "note": "(stereo not drawn)", "Potency": "inconclusive [cytotoxic, partial curve]"}, {"molecule": "COc1cc2nc(SCc3ccc(F)cc3)n(Cc3cccs3)c(=N)c2cc1OC", "Potency": "inactive"}, {"molecule": "CCc1nc2ccc(C(=O)NCc3ccccc3OC)cn2c1N(CC)Cc1cccc(Br)c1", "Potency": "inconclusive [cytotoxic, single point]"}, {"molecule": "COc1cccc(Cn2cnc(-c3ccccc3OC)c2C2CC2)c1", "Potency": "inconclusive [cytotoxic, single point]"}, {"molecule": "O=C(Nc1ccc(N2CCN(C(=O)c3ccco3)CC2)cc1)c1ccc2c(c1)OCO2", "Potency": "inconclusive [cytotoxic, partial curve]"}, {"molecule": "NC(=S)N1OC[C@@H]2COc3ccc4ccccc4c3[C@@H]21", "Potency": "inconclusive [cytotoxic, single point]"}, {"molecule": "O=C1N/C(=N\\N=C\\c2cccs2)SC1Cc1cccc(Cl)c1Cl", "note": "(stereo not drawn)", "Potency": "active: 6.51 µM"}, {"molecule": "O=C(CCCN1C(=O)S/C(=C\\C=C\\c2ccccc2)C1=O)Nc1ccc(O)cc1", "Potency": "active: 20.6 µM"}, {"molecule": "CSc1ncccc1C(=O)OCC(=O)c1[nH]c(C)c(C(C)=O)c1C", "Potency": "inactive"}, {"molecule": "COC(=O)N1c2ccccc2CCc2ccccc21", "Potency": "inconclusive [cytotoxic, single point]"}, {"molecule": "CCS(=O)(=O)n1nc(-c2ccco2)nc1N", "Potency": "inactive"}, {"molecule": "COc1ccc(CCN2CC(C(=O)NCc3cccc(F)c3)CCC2=O)cc1", "note": "(stereo not drawn)", "Potency": "inactive"}, {"molecule": "COc1cccc(CN(C)C(=O)CNC(=O)c2cccs2)c1OC", "Potency": "inactive"}, {"molecule": "CC(C)(C)NC(=O)C(c1ccccc1F)n1c(=O)c(-c2cc3ccccc3[nH]2)nc2ccccc21", "note": "(stereo not drawn)", "Potency": "inconclusive [cytotoxic, partial curve]"}, {"molecule": "CCCCC(=O)N/N=C(/C)C1=C(C)C(C)(C)OC1=O", "Potency": "inactive"}, {"molecule": "Cc1cc(N2CCOCC2)ccc1/C=C\\[N+](=O)[O-]", "Potency": "active: 5.8 µM"}, {"molecule": "CCN(CC)CCOc1ccc2c(c1)C(=NO)c1cc(OCCN(CC)CC)ccc1-2", "Potency": "active: 7.08 µM"}, {"molecule": "COc1cc(C)c2sc3ccccc3c(=O)c2c1NCCN(C)C", "Potency": "inconclusive [cytotoxic, partial curve]"}, {"molecule": "O=c1cc(CNc2cc(C(F)(F)F)cc(C(F)(F)F)c2)nc2sccn12", "Potency": "inconclusive [cytotoxic, partial curve]"}, {"molecule": "Cc1cc(-c2ccccc2)nc2cc(C(=O)NCCCn3ccnc3)nn12", "Potency": "inactive"}, {"molecule": "O=C(NNC(=S)Nc1ccc(Br)cc1)c1ccccc1", "Potency": "inconclusive [cytotoxic, single point]"}, {"molecule": "N=c1n(Cc2ccccc2)c2ccccc2n1CC(O)c1ccccc1", "note": "(stereo not drawn)", "Potency": "inconclusive [cytotoxic, single point]"}, {"molecule": "Cc1ccc(Sc2c(C=O)c3ccccc3n2C)cc1", "Potency": "inconclusive [cytotoxic, single point]"}, {"molecule": "Cc1ccc(C)c(-n2sc3ccc(F)cc3c2=O)c1", "Potency": "inconclusive [cytotoxic, single point]"}, {"molecule": "CN(CCCNC(=O)C1CCN(S(=O)(=O)c2cccc3nsnc23)CC1)Cc1ccccc1", "Potency": "inactive"}, {"molecule": "COc1ccccc1CCC(=O)NNC(=O)Cn1nc(C)cc1C", "Potency": "inactive"}, {"molecule": "CC(C)(C)c1ccc(OCC(O)CN2CCc3ccccc3C2)cc1", "note": "(stereo not drawn)", "Potency": "inconclusive [cytotoxic, single point]"}, {"molecule": "CC1(C)O[C@@H]2C[C@H]3[C@@H]4CCC5=CC(=O)C=C[C@]5(C)[C@@]4(F)[C@@H](O)C[C@]3(C)[C@]2(C(=O)CO)O1", "Potency": "inconclusive [rising, full curve, poor fit]"}, {"molecule": "COc1ccc(C2=NOC(C(=O)NCc3ccc(F)cc3)C2)cc1OC", "note": "(stereo not drawn)", "Potency": "active: 1.12 µM"}, {"molecule": "COc1cc(Nc2nc(-c3ccccc3)c3cc(C)ccc3n2)cc(OC)c1OC", "Potency": "inconclusive [cytotoxic, single point]"}, {"molecule": "Cc1noc(C)c1COc1ccc(C(=O)NNC(=O)c2ccccc2F)cc1", "Potency": "active: 6.51 µM"}, {"molecule": "CCN1c2ccccc2NC2N=C(OC)C(c3ccccc3)C21", "note": "(stereo not drawn)", "Potency": "active: 8.91 µM"}, {"molecule": "CCN1CC(CN(C)Cc2nc(-c3ccc(Cl)cc3)no2)CC1=O", "note": "(stereo not drawn)", "Potency": "inconclusive [cytotoxic, single point]"}, {"molecule": "O=C(Cc1ccccc1)Nc1ccc(NC(=O)c2cccc(Cl)c2)cc1", "Potency": "inconclusive [cytotoxic, partial curve]"}, {"molecule": "Cc1cccc(C)c1NC(=O)c1ccc(-c2cc(F)ccc2F)o1", "Potency": "inconclusive [cytotoxic, partial curve, poor fit]"}, {"molecule": "COc1ccc(CC(=O)Nc2cccc(-c3nnc(-c4ccc(C)cc4)o3)c2)cc1OC", "Potency": "inconclusive [cytotoxic, single point]"}, {"molecule": "Cc1nn(C)cc1CN1CCCC(C(=O)c2ccc(-c3ccccc3)cc2)C1", "note": "(stereo not drawn)", "Potency": "inconclusive [cytotoxic, partial curve]"}, {"molecule": "O=C(N/N=C/c1ccc([N+](=O)[O-])o1)c1cc(-c2cccc(Br)c2)nc2ccccc12", "Potency": "inconclusive [cytotoxic, single point]"}, {"molecule": "Cc1c(C(=O)Nc2c(F)cccc2F)sc2ncnc(N3CCN(c4ccccc4)CC3)c12", "Potency": "inconclusive [cytotoxic, single point]"}, {"molecule": "COc1cccc(N(C(=O)CCl)C(C(=O)NCCc2ccccc2)c2cccs2)c1", "note": "(stereo not drawn)", "Potency": "active: 1.3 µM"}, {"molecule": "CCN(CC)S(=O)(=O)c1ccc(O)c(C(=O)OCC(=O)N2CCCc3ccccc32)c1", "Potency": "inactive"}, {"molecule": "Cc1cccc(/C=c2\\s/c(=C\\C(=O)C(C)(C)C)[nH]c2=O)c1", "Potency": "inconclusive [cytotoxic, single point]"}, {"molecule": "CC(C)C(=O)C1=Cc2cccc([N+](=O)[O-])c2OC1N1CCOCC1", "note": "(stereo not drawn)", "Potency": "inactive"}, {"molecule": "COc1cccc(F)c1C(C[N+](=O)[O-])c1c(N)n(C)c(=O)n(C)c1=O", "note": "(stereo not drawn)", "Potency": "active: 5.8 µM"}, {"molecule": "CCOC(=O)c1ccc(NC(=O)C2C3CCCCC32)cc1", "note": "(stereo not drawn)", "Potency": "inactive"}, {"molecule": "Cc1ccc(Cc2c(C3CCCCC3)nc3ccc(C)cn23)cc1", "Potency": "inconclusive [cytotoxic, single point]"}, {"molecule": "C/C(=N\\Nc1nncc2ccccc12)c1cccc(OC(F)F)c1", "Potency": "inconclusive [cytotoxic, single point]"}, {"molecule": "COc1cc(/C(C#N)=C/c2cccc3ccccc23)c([N+](=O)[O-])cc1OC", "Potency": "inconclusive [cytotoxic, partial curve]"}, {"molecule": "Cc1ccc(CNC(=O)c2ccc(C)c(S(=O)(=O)N3CCCCC3)c2)cc1", "Potency": "inactive"}, {"molecule": "Cc1ccc(OCc2nnc(NC(=O)c3ccco3)s2)cc1", "Potency": "inactive"}, {"molecule": "O=C(NCc1cccnc1)c1ccc(NC(=O)c2ccc([N+](=O)[O-])cc2)cc1", "Potency": "active: 14.6 µM"}, {"molecule": "Nc1cc2c(cc1Br)-c1ccccc1C2=NO", "Potency": "inactive"}, {"molecule": "O=C(Nc1ccccc1)c1ccc2nc(-c3ccco3)c(-c3ccco3)nc2c1", "Potency": "inconclusive [cytotoxic, single point]"}, {"molecule": "Cc1ccc2nc(Cl)c(C3CC(c4cccs4)=NN3C(=O)CCCC(=O)O)cc2c1", "note": "(stereo not drawn)", "Potency": "inactive"}, {"molecule": "C=CCOc1nc2c(c(=O)n(C)c(=O)n2C)n1Cc1ccccc1Cl", "Potency": "inconclusive [cytotoxic, single point]"}, {"molecule": "Cc1cc(C)cc(NC(=O)Nc2ccc(-n3ccc(C(F)(F)F)n3)cc2)c1", "Potency": "active: 23.1 µM"}, {"molecule": "COc1ccc(/C=N/NC(=O)c2cccs2)c2ccccc12", "Potency": "inconclusive [cytotoxic, single point]"}, {"molecule": "CC(=O)c1cn(CCOc2ccc(F)cc2)c2ccccc12", "Potency": "inconclusive [cytotoxic, single point]"}, {"molecule": "CCOc1ccccc1N1CCN(C(=O)c2ccncc2)CC1", "activity, negative = toxicity": "inconclusive: 32.3%"}, {"molecule": "COc1ccc(OC)c(Nc2nc3ccc(C)cc3n3cnnc23)c1", "Potency": "inactive"}, {"molecule": "COc1cccc(CNc2nc(-c3cccnc3)nc3ccccc23)c1", "Potency": "inconclusive [cytotoxic, single point]"}, {"molecule": "COc1cc(Br)cc(/C=N/NC(=O)Cc2ccccc2)c1O", "Potency": "active: 8.2 µM"}, {"molecule": "O=C(CSc1nnc(NC(=O)c2ccc(F)cc2)s1)NC1CCCC1", "Potency": "inactive"}, {"molecule": "CCCCn1c(N)c(N(CC(C)C)C(=O)CSCc2ccc(Cl)c(Cl)c2)c(=O)[nH]c1=O", "Potency": "inactive"}]}]}
